Source: publication PMC4999519
These are yes or no findings as the source states them, for the method shown. In cells and extracts the contact can be indirect. Some results given as binding are weak or reduced against the parent protein; the word gives no strength. For some assays here: Where a sequence is shown, tags or fusion partners need not be part of it. One block for each molecule: values may come before it.

Chains of the proteins cited; added tags and fusions are not shown. Lines headed by an entry give the natural chain unless they say otherwise; changes in a name come on top.
UniProt Q96EB6: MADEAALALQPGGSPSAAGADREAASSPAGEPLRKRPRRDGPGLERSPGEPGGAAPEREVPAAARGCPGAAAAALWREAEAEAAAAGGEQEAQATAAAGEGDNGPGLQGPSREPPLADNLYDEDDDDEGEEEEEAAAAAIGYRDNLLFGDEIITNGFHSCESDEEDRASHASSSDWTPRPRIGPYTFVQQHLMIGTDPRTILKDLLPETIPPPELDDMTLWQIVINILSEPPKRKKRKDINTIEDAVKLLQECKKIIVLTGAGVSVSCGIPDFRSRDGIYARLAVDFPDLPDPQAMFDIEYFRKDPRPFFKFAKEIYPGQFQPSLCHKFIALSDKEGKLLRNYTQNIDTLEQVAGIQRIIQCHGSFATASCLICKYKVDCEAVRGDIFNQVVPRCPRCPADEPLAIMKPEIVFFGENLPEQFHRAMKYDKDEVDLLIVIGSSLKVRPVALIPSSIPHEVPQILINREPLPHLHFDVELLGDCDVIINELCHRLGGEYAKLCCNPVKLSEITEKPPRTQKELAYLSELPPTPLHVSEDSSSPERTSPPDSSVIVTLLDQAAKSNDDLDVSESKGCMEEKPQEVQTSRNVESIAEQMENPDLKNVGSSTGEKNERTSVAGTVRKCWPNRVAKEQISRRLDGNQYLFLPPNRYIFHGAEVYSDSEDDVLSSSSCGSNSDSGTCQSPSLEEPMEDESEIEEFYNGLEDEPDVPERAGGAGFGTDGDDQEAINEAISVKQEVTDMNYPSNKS
UniProt Q8VDP4: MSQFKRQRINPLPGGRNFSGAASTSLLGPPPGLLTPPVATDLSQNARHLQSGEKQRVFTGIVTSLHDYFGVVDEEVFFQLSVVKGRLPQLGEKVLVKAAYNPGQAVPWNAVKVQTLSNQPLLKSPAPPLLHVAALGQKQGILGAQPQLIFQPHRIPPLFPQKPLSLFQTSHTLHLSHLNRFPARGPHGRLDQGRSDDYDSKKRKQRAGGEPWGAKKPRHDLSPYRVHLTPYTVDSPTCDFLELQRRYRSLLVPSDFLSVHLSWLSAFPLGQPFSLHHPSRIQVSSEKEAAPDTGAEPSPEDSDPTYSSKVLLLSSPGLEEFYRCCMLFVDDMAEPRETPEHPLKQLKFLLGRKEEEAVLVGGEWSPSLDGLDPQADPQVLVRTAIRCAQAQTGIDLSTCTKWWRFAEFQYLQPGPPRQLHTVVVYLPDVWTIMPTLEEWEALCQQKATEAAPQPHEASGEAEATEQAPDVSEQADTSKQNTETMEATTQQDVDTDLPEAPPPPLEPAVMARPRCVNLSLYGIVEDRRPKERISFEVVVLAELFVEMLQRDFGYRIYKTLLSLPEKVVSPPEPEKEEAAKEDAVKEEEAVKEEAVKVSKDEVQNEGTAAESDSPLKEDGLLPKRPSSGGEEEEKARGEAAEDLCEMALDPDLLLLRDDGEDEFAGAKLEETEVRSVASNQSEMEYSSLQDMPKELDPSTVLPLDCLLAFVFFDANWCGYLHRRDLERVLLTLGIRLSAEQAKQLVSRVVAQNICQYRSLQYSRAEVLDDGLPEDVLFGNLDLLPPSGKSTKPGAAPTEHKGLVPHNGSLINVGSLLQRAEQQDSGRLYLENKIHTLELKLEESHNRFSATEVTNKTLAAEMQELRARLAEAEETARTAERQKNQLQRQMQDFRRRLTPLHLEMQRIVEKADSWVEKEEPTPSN
UniProt Q01147: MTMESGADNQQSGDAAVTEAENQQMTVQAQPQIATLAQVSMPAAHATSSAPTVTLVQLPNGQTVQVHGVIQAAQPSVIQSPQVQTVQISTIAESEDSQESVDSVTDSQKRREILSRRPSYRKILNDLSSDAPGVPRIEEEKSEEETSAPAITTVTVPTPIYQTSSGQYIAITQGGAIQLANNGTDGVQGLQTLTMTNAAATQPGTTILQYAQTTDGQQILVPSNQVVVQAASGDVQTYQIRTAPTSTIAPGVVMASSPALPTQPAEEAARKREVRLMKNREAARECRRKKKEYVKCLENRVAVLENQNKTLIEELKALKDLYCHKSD

Tests used:
HA-SIRT1 = HA-SIRT1 (UniProt Q96EB6); assay: co-IP; MLTC-1 cells co-transfected with myc-DBC1 and HA-SIRT1 (Supplementary Fig. 13)
[1] = biological target: T1, Sirtuin 1 (endogenous) (mouse (endogenous in C2C12, mouse BAT, MLTC-1)) (UniProt Q923E4); assay: proximity ligation; PLA for endogenous SIRT1-DBC1 complexes in MLTC-1 cells transfected with siRNA duplexes for 48 h, then vehicle or Iso/IBMX for 30 min
T1 sequence: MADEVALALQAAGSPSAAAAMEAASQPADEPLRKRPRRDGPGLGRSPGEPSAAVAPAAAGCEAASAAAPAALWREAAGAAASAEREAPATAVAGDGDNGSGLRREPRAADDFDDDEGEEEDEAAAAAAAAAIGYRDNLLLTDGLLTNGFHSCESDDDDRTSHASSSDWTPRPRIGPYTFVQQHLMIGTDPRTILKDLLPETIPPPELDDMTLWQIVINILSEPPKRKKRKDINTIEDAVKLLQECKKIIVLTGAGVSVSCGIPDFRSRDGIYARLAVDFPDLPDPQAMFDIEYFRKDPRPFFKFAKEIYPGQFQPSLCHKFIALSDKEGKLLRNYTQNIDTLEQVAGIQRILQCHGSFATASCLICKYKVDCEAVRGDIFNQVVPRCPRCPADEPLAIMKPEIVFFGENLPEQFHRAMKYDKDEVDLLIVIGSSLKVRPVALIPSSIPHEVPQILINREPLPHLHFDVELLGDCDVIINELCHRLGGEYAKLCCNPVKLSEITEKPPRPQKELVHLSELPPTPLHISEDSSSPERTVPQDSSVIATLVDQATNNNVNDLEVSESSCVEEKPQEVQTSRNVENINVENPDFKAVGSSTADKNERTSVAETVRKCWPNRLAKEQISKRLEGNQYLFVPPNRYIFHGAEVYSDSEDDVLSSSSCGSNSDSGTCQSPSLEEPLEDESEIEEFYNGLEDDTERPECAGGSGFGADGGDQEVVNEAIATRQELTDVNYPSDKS

[2] = biological target: T1, Sirtuin 1 (endogenous) (mouse (endogenous in C2C12, mouse BAT, MLTC-1)); assay: co-IP; IP of SIRT1, western blot for DBC1 and SIRT1, from MLTC-1 cells transfected with siControl or siPerilipin 5 and treated with vehicle or Iso/IBMX for 30 min
[3] = biological target: T2, Perilipin 5 (endogenous) (mouse (endogenous in C2C12, mouse BAT, brown adipocyte line)) (UniProt Q8BVZ1); assay: co-IP; IP of Perilipin 5, western blot for PGC-1α, histone H3, Creb and actin (Supplementary Fig. 11); cells not given
T2 sequence: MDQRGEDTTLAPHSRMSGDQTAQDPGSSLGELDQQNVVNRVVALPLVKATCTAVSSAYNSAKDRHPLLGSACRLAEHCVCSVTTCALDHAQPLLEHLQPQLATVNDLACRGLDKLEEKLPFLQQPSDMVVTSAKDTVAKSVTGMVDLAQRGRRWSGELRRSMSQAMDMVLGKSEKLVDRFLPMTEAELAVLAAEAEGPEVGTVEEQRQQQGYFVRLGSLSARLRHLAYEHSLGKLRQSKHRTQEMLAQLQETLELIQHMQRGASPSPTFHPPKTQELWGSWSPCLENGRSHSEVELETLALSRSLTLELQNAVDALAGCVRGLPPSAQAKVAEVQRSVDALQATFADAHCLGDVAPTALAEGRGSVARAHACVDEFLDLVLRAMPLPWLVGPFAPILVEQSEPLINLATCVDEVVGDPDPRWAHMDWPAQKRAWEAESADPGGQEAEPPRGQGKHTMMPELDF

[4] = biological target: T3, myc-Perilipin 5 (transfected in C2C12 myoblasts) (mouse) (UniProt Q8BVZ1); assay: co-IP; whole-cell extract of C2C12 myoblasts transfected with myc-Perilipin 5 and flag-PGC-1α and treated with Iso/IBMX for 2 h; flag and myc antibodies; non-transfected cells as control
T3 sequence: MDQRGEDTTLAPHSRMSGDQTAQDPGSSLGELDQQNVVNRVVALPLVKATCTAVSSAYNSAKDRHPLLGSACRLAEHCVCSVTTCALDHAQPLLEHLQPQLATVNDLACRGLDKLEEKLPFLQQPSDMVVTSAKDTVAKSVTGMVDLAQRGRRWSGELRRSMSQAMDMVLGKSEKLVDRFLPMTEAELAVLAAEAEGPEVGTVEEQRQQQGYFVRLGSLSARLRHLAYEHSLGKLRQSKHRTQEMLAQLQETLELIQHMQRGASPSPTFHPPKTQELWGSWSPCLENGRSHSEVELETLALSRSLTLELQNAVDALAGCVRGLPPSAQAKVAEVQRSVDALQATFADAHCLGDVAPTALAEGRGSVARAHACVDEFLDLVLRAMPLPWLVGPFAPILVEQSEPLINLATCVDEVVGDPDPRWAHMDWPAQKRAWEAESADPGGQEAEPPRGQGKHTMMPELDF

[5] = biological target: T4, PGC-1α (transfected, Supplementary Fig. 10a) (UniProt O70343); assay: co-IP; cells transfected with wild-type Perilipin 5 or Perilipin 2 and PGC-1α; IP of PGC-1α (Supplementary Fig. 10a)
T4 sequence: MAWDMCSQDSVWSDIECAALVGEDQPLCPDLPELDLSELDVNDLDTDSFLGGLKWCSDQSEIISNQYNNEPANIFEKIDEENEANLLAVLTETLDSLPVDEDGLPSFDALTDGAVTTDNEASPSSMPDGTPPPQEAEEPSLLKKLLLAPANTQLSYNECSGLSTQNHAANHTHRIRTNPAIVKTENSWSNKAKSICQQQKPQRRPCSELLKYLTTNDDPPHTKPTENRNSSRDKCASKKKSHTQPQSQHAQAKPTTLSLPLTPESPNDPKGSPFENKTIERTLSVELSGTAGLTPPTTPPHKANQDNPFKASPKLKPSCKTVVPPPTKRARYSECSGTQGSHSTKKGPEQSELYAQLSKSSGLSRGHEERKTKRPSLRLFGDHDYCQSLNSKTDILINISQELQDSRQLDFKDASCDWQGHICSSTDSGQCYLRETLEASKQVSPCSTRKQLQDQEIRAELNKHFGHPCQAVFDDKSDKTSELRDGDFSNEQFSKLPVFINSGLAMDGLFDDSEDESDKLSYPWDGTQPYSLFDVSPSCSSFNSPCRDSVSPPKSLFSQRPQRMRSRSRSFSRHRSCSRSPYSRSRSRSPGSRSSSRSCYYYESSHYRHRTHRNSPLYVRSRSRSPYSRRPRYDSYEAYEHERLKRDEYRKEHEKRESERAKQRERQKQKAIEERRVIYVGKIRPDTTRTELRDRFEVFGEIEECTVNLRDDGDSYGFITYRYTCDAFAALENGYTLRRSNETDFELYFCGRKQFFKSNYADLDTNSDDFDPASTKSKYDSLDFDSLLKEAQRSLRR

[6] = biological target: T2, Perilipin 5 (endogenous) (mouse (endogenous in C2C12, mouse BAT, brown adipocyte line)); assay: co-IP; IP of Perilipin 5 from intrascapular BAT of wild-type mice treated with CL 316,243 or vehicle
[7] = biological target: T2, Perilipin 5 (endogenous) (mouse (endogenous in C2C12, mouse BAT, brown adipocyte line)); assay: co-IP; nuclear extracts of C2C12 myotubes treated with vehicle or Iso/IBMX for 2 h; IP of PGC-1α or of Perilipin 5; IP buffer 20 mM HEPES pH 7.9, 0.15 M NaCl, 1 mM EDTA, 1 mM EGTA, 1 mM DTT; 4 °C
[8] = biological target: T2, Perilipin 5 (endogenous) (mouse (endogenous in C2C12, mouse BAT, brown adipocyte line)); assay: co-IP; whole-cell lysate of brown adipocytes treated with vehicle or Iso/IBMX for 2 h; IP of Perilipin 5 or of PGC-1α; controls IgG and siRNA for PGC-1α and/or Perilipin 5; also with orlistat or siATGL; lysis in HEPES pH 7.4, 150 mM NaCl, 2 mM EDTA, 1% Triton X-100, 0.5% cholate; 4 °C

Molecule: Deleted in breast cancer 1 (endogenous) (from UniProt Q8VDP4 1-922)
binding [1]: binds
binding [2]: binds

Molecule: Creb (from UniProt Q01147 1-327)
binding [3]: no binding

B3: Peroxisome proliferator-activated receptor gamma coactivator 1-alpha (endogenous) (protein, UniProt O70343 1-797)
chain: MAWDMCSQDSVWSDIECAALVGEDQPLCPDLPELDLSELDVNDLDTDSFLGGLKWCSDQSEIISNQYNNEPANIFEKIDEENEANLLAVLTETLDSLPVDEDGLPSFDALTDGAVTTDNEASPSSMPDGTPPPQEAEEPSLLKKLLLAPANTQLSYNECSGLSTQNHAANHTHRIRTNPAIVKTENSWSNKAKSICQQQKPQRRPCSELLKYLTTNDDPPHTKPTENRNSSRDKCASKKKSHTQPQSQHAQAKPTTLSLPLTPESPNDPKGSPFENKTIERTLSVELSGTAGLTPPTTPPHKANQDNPFKASPKLKPSCKTVVPPPTKRARYSECSGTQGSHSTKKGPEQSELYAQLSKSSGLSRGHEERKTKRPSLRLFGDHDYCQSLNSKTDILINISQELQDSRQLDFKDASCDWQGHICSSTDSGQCYLRETLEASKQVSPCSTRKQLQDQEIRAELNKHFGHPCQAVFDDKSDKTSELRDGDFSNEQFSKLPVFINSGLAMDGLFDDSEDESDKLSYPWDGTQPYSLFDVSPSCSSFNSPCRDSVSPPKSLFSQRPQRMRSRSRSFSRHRSCSRSPYSRSRSRSPGSRSSSRSCYYYESSHYRHRTHRNSPLYVRSRSRSPYSRRPRYDSYEAYEHERLKRDEYRKEHEKRESERAKQRERQKQKAIEERRVIYVGKIRPDTTRTELRDRFEVFGEIEECTVNLRDDGDSYGFITYRYTCDAFAALENGYTLRRSNETDFELYFCGRKQFFKSNYADLDTNSDDFDPASTKSKYDSLDFDSLLKEAQRSLRR
binding [6]: binds
binding [3]: binds
binding [7]: binds
binding [8]: binds

B4: Perilipin 2 (transfected, Supplementary Fig. 10a) (protein, UniProt P43883 1-425)
chain: MAAAVVDPQQSVVMRVANLPLVSSTYDLVSSAYVSTKDQYPYLRSVCEMAEKGVKTVTSAAMTSALPIIQKLEPQIAVANTYACKGLDRMEERLPILNQPTSEIVASARGAVTGAKDVVTTTMAGAKDSVASTVSGVVDKTKGAVTGSVERTKSVVNGSINTVLGMVQFMNSGVDNAITKSELLVDQYFPLTQEELEMEAKKVEGFDMVQKPSNYERLESLSTKLCSRAYHQALSRVKEAKQKSQETISQLHSTVHLIEFARKNMHSANQKIQGAQDKLYVSWVEWKRSIGYDDTDESHCVEHIESRTLAIARNLTQQLQTTCQTVLVNAQGLPQNIQDQAKHLGVMAGDIYSVFRNAASFKEVSDGVLTSSKGQLQKMKESLDEVMDYFVNNTPLNWLVGPFYPQSTEVNKASLKVQQSEVKAQ
binding [5]: no binding

Further lines, results first:

binding (HA-SIRT1): binds
Molecule: myc-DBC1 (from UniProt Q8VDP4 1-922)

binding [4]: binds
B1: flag-PGC-1α (protein, UniProt O70343 1-797)
chain: MAWDMCSQDSVWSDIECAALVGEDQPLCPDLPELDLSELDVNDLDTDSFLGGLKWCSDQSEIISNQYNNEPANIFEKIDEENEANLLAVLTETLDSLPVDEDGLPSFDALTDGAVTTDNEASPSSMPDGTPPPQEAEEPSLLKKLLLAPANTQLSYNECSGLSTQNHAANHTHRIRTNPAIVKTENSWSNKAKSICQQQKPQRRPCSELLKYLTTNDDPPHTKPTENRNSSRDKCASKKKSHTQPQSQHAQAKPTTLSLPLTPESPNDPKGSPFENKTIERTLSVELSGTAGLTPPTTPPHKANQDNPFKASPKLKPSCKTVVPPPTKRARYSECSGTQGSHSTKKGPEQSELYAQLSKSSGLSRGHEERKTKRPSLRLFGDHDYCQSLNSKTDILINISQELQDSRQLDFKDASCDWQGHICSSTDSGQCYLRETLEASKQVSPCSTRKQLQDQEIRAELNKHFGHPCQAVFDDKSDKTSELRDGDFSNEQFSKLPVFINSGLAMDGLFDDSEDESDKLSYPWDGTQPYSLFDVSPSCSSFNSPCRDSVSPPKSLFSQRPQRMRSRSRSFSRHRSCSRSPYSRSRSRSPGSRSSSRSCYYYESSHYRHRTHRNSPLYVRSRSRSPYSRRPRYDSYEAYEHERLKRDEYRKEHEKRESERAKQRERQKQKAIEERRVIYVGKIRPDTTRTELRDRFEVFGEIEECTVNLRDDGDSYGFITYRYTCDAFAALENGYTLRRSNETDFELYFCGRKQFFKSNYADLDTNSDDFDPASTKSKYDSLDFDSLLKEAQRSLRR

binding [5]: binds
B2: wild-type Perilipin 5 (transfected, Supplementary Fig. 10a) (protein, UniProt Q8BVZ1 1-463)
chain: MDQRGEDTTLAPHSRMSGDQTAQDPGSSLGELDQQNVVNRVVALPLVKATCTAVSSAYNSAKDRHPLLGSACRLAEHCVCSVTTCALDHAQPLLEHLQPQLATVNDLACRGLDKLEEKLPFLQQPSDMVVTSAKDTVAKSVTGMVDLAQRGRRWSGELRRSMSQAMDMVLGKSEKLVDRFLPMTEAELAVLAAEAEGPEVGTVEEQRQQQGYFVRLGSLSARLRHLAYEHSLGKLRQSKHRTQEMLAQLQETLELIQHMQRGASPSPTFHPPKTQELWGSWSPCLENGRSHSEVELETLALSRSLTLELQNAVDALAGCVRGLPPSAQAKVAEVQRSVDALQATFADAHCLGDVAPTALAEGRGSVARAHACVDEFLDLVLRAMPLPWLVGPFAPILVEQSEPLINLATCVDEVVGDPDPRWAHMDWPAQKRAWEAESADPGGQEAEPPRGQGKHTMMPELDF
